Results are given in words; binding and its absence hold for the method and conditions named. Some binding calls cover weakened binding; strength is not graded here.
Assays:
[1] = target: YabA H95I, BD fusion (B. subtilis) (UniProt P37542); experiment: two-hybrid; BD-YabA wild type or mutants (pGBDU) mated with AD-DnaA, AD-DnaN or AD-YabA (pGAD); growth on -LUH and -LUA
[2] = target: YabA H95G, BD fusion (B. subtilis) (UniProt P37542); experiment: as above
[3] = target: YabA H95L, BD fusion (B. subtilis) (UniProt P37542); experiment: as above
[4] = target: YabA F94Y, BD fusion (B. subtilis) (UniProt P37542); experiment: as above
[5] = target: YabA full length, GAL4 fusion (yeast two-hybrid) (B. subtilis) (UniProt P37542); experiment: as above
[6] = target: YabA^70–119 (B. subtilis) (UniProt P37542); experiment: SEC-MALS; YabA1-58 and YabA70-119 loaded at 5 mg.ml^-1 (100 μl) on a Superdex 75 column; 50 mM Tris pH 8.0, 150 mM NaCl; both purified

By UniProt entry, the sequences of proteins in these tests, tags left out. Where a name states a change or a piece, a line headed by the entry shows the natural chain unless it says otherwise.
UniProt P37542: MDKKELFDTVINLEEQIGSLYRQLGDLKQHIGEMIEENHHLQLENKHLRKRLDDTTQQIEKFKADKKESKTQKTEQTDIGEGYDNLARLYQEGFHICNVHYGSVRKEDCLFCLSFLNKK

binding [1]	binding [2]	binding [3]	binding [4]	binding [5]	binding [6]	Substance
binds	binds	binds	binds	binds		YabA full length, GAL4 fusion (yeast two-hybrid) (from UniProt P37542 1-119)
					no binding (tested: 5 mg.ml^−1 loaded)	YabA^70–119 (from UniProt P37542 70-119) (domain or fragment)

Source: paper PMC4705661
